This data set deals with the molecule itself. Put plainly: SEC-MALS; self-association of His6-SspB-CCD fusion proteins (ACCORD); Superdex 200 10/300 GL, 50 mM Tris pH 8.0, 0.5 mM TCEP, 200 mM NaCl; sample 3-5 mg/ml, 0.5 ml.

B1: His6-SspB-BECN1 ([…]) fusion protein (other, E. coli | H. sapiens)
chain: MDLSQLTPRRPYLLRAFYEWLLDNQLTPHLVVDVTLPGVQVPMEYARDGQIVLNIAPRAVGNLELANDEVRFNARFGGIPRQVSVPLAAVLAIYARENGAGTMFEPEAAYDEDTSIMNDEEASADNETVMSVIDGDKPDHDDDTHPDDEPPQPPRGGRPALRVVK[about 100 residues left out here]
notes: Stringent starvation protein B (SspB), E. coli, full length, […] ([…]), amplified from genomic DNA; Beclin-1 (BECN1), human cDNA, coiled-coil domain, […] ([…]); the construct here was amplified from human cDNA; also called Beclin-1; source: E. coli BL21(DE3), purified (HisTrap, Superdex 200); not shown: His6, N-terminal, kept
Turning to B1, the stoichiometry N (usually the number of molecules, sites or subunits per partner or assembly) stood at 4.
